Source: PubChem BioAssay AID686978 (National Center for Advancing Translational Sciences (NCATS), 2013)
Several values for one entry are separate records, joined by “and”; a condition that tells them apart may be missing. Identical values can stand only once. In all, about 420,000 compounds went through this assay and about 64,000 (15%) were called active. The inconclusive results got no clear call from the source; some entries with a clear call stand among them for comparison. Calls come from the whole dose curve; as a rule, active = well fitted inhibition curve with a large enough effect; inconclusive = small, poorly fitted or top-dose-only effect; inactive = flat fitted curve, though single readings scatter. Where the call is inconclusive, the potency comes from a doubtful curve fit.

experiment: qHTS for Inhibitors of human tyrosyl-DNA phosphodiesterase 1 (TDP1): qHTS in cells in absence of CPT; settings: DT40 Tdp1-/- hTDP1 cells, no CPT, ATP luminescence, 48 h; activity change, negative = growth inhibition: at 46.2 µM (top of the series) unless noted; note: nearly all actives have a fitted effect of over 55% in size
Summary of the method: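 No-CPT arm: Tdp1-/-;hTDP1 DT40 cells (400/well) plus compounds, incubated ≥48 hr at 37 °C. Readout CellTiter-Glo luminescence.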
% is set by controls: 0 for no effect and ±100 for the full control effect; potency is the fitted concentration of half-maximal effect; tags give direction and shape of the fitted curve.

| SMILES | Potency | activity change, negative = growth inhibition |
| --- | --- | --- |
| CC1CC=C(c2ccccc2)C(=S)N1 (stereo unspecified) | inconclusive: 29.1 µM [inhibitor, single point] |  |
| COc1cccc(-c2c(C#N)c(N)nc3c2c(C)nn3-c2ccccc2)c1O | inconclusive: 14.6 µM [inhibitor, partial curve] |  |
| COc1cc(CNn2c(C)n[nH]c2=S)cc(Br)c1OCC(=O)NC(C)(C)C | inconclusive: 18.4 µM [inhibitor, single point] |  |
| COc1ccc(C)cc1NC(=O)CN1CCN(S(=O)(=O)c2ccc3ccccc3c2)CC1 | active: 16.4 µM |  |
| COCCn1c(=S)[nH]c2sc3c(c2c1=O)CCC(C)C3 (stereo unspecified) | inconclusive: 18.4 µM [inhibitor, single point] |  |
| COc1ccc(C(=O)c2c(-c3ccc(OC)cc3)oc3ccccc23)cc1 | inconclusive: 16.4 µM [inhibitor, single point] |  |
| CCCN(C(=O)CSc1nnc(-c2ccc3c(c2)OCO3)o1)C1CCS(=O)(=O)C1 (stereo unspecified) | inconclusive: 29.1 µM [inhibitor, single point] |  |
| CCCCOc1ccc(C(=O)Nc2ccc3c(c2)CCCN3C(=O)c2cccs2)cc1 | active: 5.17 µM |  |
| CC1CCN(S(=O)(=O)c2ccc(C(=O)Nc3nnc(-c4ccco4)o3)cc2)CC1 | active: 18.4 µM |  |
| Cc1nc2nc(NC(=O)c3ccc(C(C)(C)C)cc3)[nH]n2c(=O)c1C | inactive |  |
| COc1cccc(Nc2ncccc2C(=O)O)c1 | inactive |  |
| CC(=O)Nc1ccc(NC(=O)COC(=O)c2ccccc2C(=O)c2ccccc2)cc1 | inconclusive: 20.6 µM [inhibitor, partial curve] |  |
| O=C(CSc1ncc(-c2ccccc2)[nH]1)Nc1ccccc1 | inactive and inconclusive: 23.1 µM [inhibitor, single point] |  |
| CN(C)S(=O)(=O)NCC1CCCN(Cc2cc3ccccc3s2)C1 (stereo unspecified) | inconclusive: 25.9 µM [inhibitor, single point] |  |
| COc1ccc(S(=O)(=O)Nc2cc3[nH]c(=O)oc3cc2C)cc1 | inconclusive: 23.1 µM [inhibitor, single point] |  |
| CC(=O)c1ccc(NC(=O)CN(C)CC(=O)Nc2cccc(F)c2)cc1 |  | inconclusive: -33.4% [inhibitor] |
| CCOC(=O)C1CCN(C(=O)c2ccccc2NC(=O)c2nsc3ccccc23)CC1 | inconclusive: 18.4 µM [inhibitor, partial curve, poor fit] |  |
| CCOc1ccc(NS(=O)(=O)c2c(C)nc3sc(C)c(C)n3c2=O)cc1 | inconclusive: 20.6 µM [inhibitor, single point] |  |
| O=[N+]([O-])c1ccccc1CNCCCCCO | inactive |  |
| COc1cc(C=CC(=O)c2ccccc2)cc(OC)c1OC | active: 8.2 µM |  |
| COc1ccc(-c2cc(C(F)F)n3ncc(C(=O)n4ccnc4C)c3n2)cc1 | active: 18.4 µM |  |
| O=C(NCCC1=CCCCC1)C1CCCN(S(=O)(=O)c2cccnc2)C1 (stereo unspecified) | inconclusive: 16.4 µM [inhibitor, single point] |  |
| COCCCNC(=O)c1cn(Cc2c(F)cccc2Cl)nn1 | inconclusive: 29.1 µM [inhibitor, single point] |  |
| CNCc1c(OCc2ccccc2)ccc2ccccc12 | inconclusive: 23.1 µM [inhibitor, single point] |  |

| SMILES | Potency | activity change, negative = growth inhibition |
| --- | --- | --- |
| Cc1nc2c3ccccc3[nH]c(=O)n2n1 | inactive |  |
| CCc1cc(=O)oc2cc(C)cc(OCC(=O)NC(Cc3ccc(Cl)cc3)C(=O)O)c12 (stereo unspecified) | inactive |  |
| O=c1c(-c2ccccc2)c(-c2ccccc2)oc2cc(O)cc(O)c12 |  | inconclusive: -31.6% [inhibitor] |
| O=C(CCC1N=C2c3ccccc3N=C(SCC(=O)Nc3cccc(Cl)c3)N2C1=O)NCc1ccco1 (stereo unspecified) | inconclusive: 23.1 µM [inhibitor, single point] |  |
| N#Cc1cccc(NC(=O)c2cc(C3CCCCN3C(=O)c3ccc4c(c3)CCO4)on2)c1 (stereo unspecified) | inconclusive: 20.6 µM [inhibitor, single point] |  |
| CCOc1ccc2c(c1)C(=NNC(=O)c1ccncc1)c1cc(OCC)ccc1-2 | active: 5.17 µM |  |
| CCc1ccc(Nc2nnc(SCc3cc(=O)n4ccsc4n3)s2)cc1 | inconclusive: 29.1 µM [inhibitor, single point] |  |
| CC(=O)Oc1ccc(/C=C2/Oc3ccccc3C2=O)cc1 | inactive |  |
| N#Cc1cccc(-c2csc(C(O)(c3ccccc3)C(F)(F)F)n2)c1 (stereo unspecified) | inconclusive: 25.9 µM [inhibitor, single point] |  |
| COc1ccc(NC(=O)NC2(C(=O)N3CCCCC3)CCCCC2)cc1 | inconclusive: 25.9 µM [inhibitor, single point] |  |
| Oc1ccc(N=Nc2nccs2)c(O)c1 | active: 20.6 µM |  |
| CCC(=O)Nc1ccc(-c2cc(-c3ccccc3)nc(-c3ccc(NC(=O)CC)cc3)n2)cc1 |  | inconclusive: -33.8% [inhibitor] |
| CCOc1ccc(OCC)c(NC(=O)C2CCCN(S(=O)(=O)c3cc(Br)cc4c3N(C(=O)CC)CC4)C2)c1 (stereo unspecified) | inconclusive: 8.2 µM [inhibitor, partial curve] |  |
| Cc1ccc(OCc2cc(C(=O)NC3CCc4ccccc43)no2)cn1 (stereo unspecified) | active: 13 µM |  |
| O=C(NCCO)c1cccc(-c2cnc3c(Nc4cccc(OC(F)(F)C(F)F)c4)nccn23)c1 | inconclusive: 18.4 µM [inhibitor, single point] |  |
| C=C(NNC(C)=O)c1ccc(O)cc1 | inactive |  |
| CCCCn1c(N)c(N(CC(C)C)C(=O)Cn2c(=O)oc3ccccc32)c(=O)[nH]c1=O | inactive |  |
| O=C1NC(Cc2ccccc2)c2nc3cc(Cl)ccc3c(=O)n2-c2ncccc21 (stereo unspecified) | inconclusive: 18.4 µM [inhibitor, single point] |  |
| CC(C)CNC(=O)c1cc2nc3c(c(C(F)(F)F)n2n1)CCc1ccccc1-3 |  | inconclusive: -34.2% [inhibitor] |
| Cc1ccc(NC(=O)CN(C)C(=O)c2cccc(S(=O)(=O)NCc3cccs3)c2)cc1 | inactive |  |
| O=C(Nc1ccccc1N1CCCC1)c1cccc(-c2cc3ccccc3oc2=O)c1 | active: 20.6 µM |  |
| CCCc1nnc(NC(=O)Nc2ccccc2Cl)s1 | inconclusive: 29.1 µM [inhibitor, single point] |  |
| COc1ccccc1Nc1nc(Cl)nc(Nc2ccccc2OC)n1 | inconclusive: 29.1 µM [inhibitor, single point] |  |
| CCCC1(c2ccccc2)NC(=O)N(CC(=O)Nc2cc(OC)cc(OC)c2)C1=O (stereo unspecified) |  | inconclusive: -31.8% [inhibitor] |

| SMILES | Potency | activity change, negative = growth inhibition |
| --- | --- | --- |
| C[C@@H]1CN([C@H](C)CO)C(=O)CCCn2nncc2CO[C@H]1CN(C)C(=O)c1ccc2ccn(C)c2c1 | inactive |  |
| COc1ccc(CNC(=O)c2c(-c3cc(Cl)c(OC)c(Cl)c3)noc2C)cc1 |  | inconclusive: -31.7% [inhibitor] |
| Cc1cc(NC(c2cccnc2)c2c(C)[nH]c3ccccc23)no1 (stereo unspecified) | inconclusive: 29.1 µM [inhibitor, single point] |  |
| CN1CCC(N(C)C(=O)NC2CCCCC2)CC1 | inactive |  |
| Cc1cccc(/C=N/N(CCO)C2=NS(=O)(=O)c3ccccc32)c1 | inconclusive: 29.1 µM [inhibitor, single point] |  |
| O=C(/C=C/NNC(=O)c1cccc(Br)c1)c1cccc(Br)c1 | inconclusive: 29.1 µM [inhibitor, single point] |  |
| CCN(C(=O)CSc1ncccc1C(=O)OC(C)C)c1cccc(C)c1 | inconclusive: 18.4 µM [inhibitor, single point] |  |
| Cc1nn(C(=O)c2c(F)cccc2F)c(C)c1S(=O)(=O)N1CCCCCC1 | inactive |  |
| COc1ccc(/C=C/C(=O)NC(=S)NNC(=O)Cc2cccs2)cc1 | inconclusive: 29.1 µM [inhibitor, single point] |  |
| O=C(CN(c1ccccc1)S(=O)(=O)c1ccc(F)cc1)NC1CCCCCC1 | inactive |  |
| CCN(C(=O)COC(=O)COc1ccccc1Cl)c1c(N)n(Cc2ccccc2)c(=O)[nH]c1=O | inactive |  |
| COc1ccc(N(CC(=O)NCc2ccc(Cl)cc2)S(=O)(=O)c2c(C)n[nH]c2C)cc1 | inactive |  |
| Cn1cccc1/C=C(/C#N)c1ccc(F)cc1 | inactive |  |
| CC(NCc1ccc2c(c1)OCO2)C(=O)NC1CCCc2ccccc21 (stereo unspecified) | inconclusive: 29.1 µM [inhibitor, single point] |  |
| Cc1ccc(NC(=O)CN2CCc3ccccc3C2)cc1F | inconclusive: 0.58 µM [inhibitor, full curve, poor fit] |  |
| O=C(NCCCN1CCOCC1)/C(=C/c1ccc(-c2cccc([N+](=O)[O-])c2)o1)NC(=O)c1ccccc1 | inconclusive: 20.6 µM [inhibitor, single point] |  |
| O=C(CN1CCN(C(c2ccccc2)c2ccccc2)CC1)N1CCOCC1 | inactive |  |
| COc1ccc(NC(=O)Cn2cc(C(=O)c3ccccc3OC)c(=O)c3ccc(C)nc32)cc1OC | inconclusive: 23.1 µM [inhibitor, single point] |  |
| CC1(Cc2ccc(Cl)cc2)C(=O)Nc2c(Cl)ccc(Cl)c21 (stereo unspecified) | inconclusive: 18.4 µM [inhibitor, single point] |  |
| O=C(Nc1ccc2c(c1)OCO2)c1cc(-c2cccnc2)nc2ccccc12 | inconclusive: 16.4 µM [inhibitor, partial curve] |  |
| CCOC(=O)C1=CCN(S(=O)(=O)c2ccc(C)cc2)C1c1cccs1 (stereo unspecified) | inconclusive: 32.6 µM [inhibitor, single point] |  |
| Cc1ccc(CC2C(=O)N(c3cc(C)ccc3C)C(=O)C2C)cc1 (stereo unspecified) | inactive |  |
| Cc1ccc(C(=O)N2CCCC(C(=O)c3cc(F)ccc3F)C2)s1 (stereo unspecified) | inconclusive: 16.4 µM [inhibitor, single point] |  |
